Test results from PMC12820563, “FoxP3 forms a head-to-head dimer in vivo and stabilizes its multimerization on adjacent microsatellites”.
The list shows a part of the results.

molecular target: T1, MBP-FoxP1dN (Mus musculus, UniProt P58462 326-579); test: PD-seq (MBP pull-down with sequencing); 20 mM Tris-HCl pH 7.5, 100 mM NaCl, 1.5 mM MgCl2, 0.4 uM protein, 0.1 uM dsDNA library, 30 min, room temperature, amylose pull-down; high values mean tight binding; conditions: protein: recombinant; tags: His6-MBP; chain copies: 2; dsDNA, one strand shown
T1 sequence: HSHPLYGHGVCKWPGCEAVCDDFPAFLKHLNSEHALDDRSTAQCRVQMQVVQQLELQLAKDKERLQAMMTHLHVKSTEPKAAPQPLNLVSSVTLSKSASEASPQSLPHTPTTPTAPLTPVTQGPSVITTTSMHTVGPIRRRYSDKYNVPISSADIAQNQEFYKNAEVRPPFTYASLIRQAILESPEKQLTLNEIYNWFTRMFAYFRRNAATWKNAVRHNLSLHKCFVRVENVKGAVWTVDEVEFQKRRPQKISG
Outline: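 Binding is given as reads-per-million enrichment, pull-down over input, with replicates pooled. The bait was an N-terminus-lacking mouse FoxP3 or FoxP1 fragment with a His6-MBP tag, expressed in E. coli and used at 0.4 µM with 0.1 µM Klenow-filled degenerate double-stranded DNA library for 30 min at room temperature in Tris pH 7.5 buffer with NaCl and MgCl2. Amylose resin pull-down with three washes was followed by proteinase K release, PCR barcoding and Illumina sequencing.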

Row | Sequence | binding signal
1 | GATGATTGTTCTCCCAGCTGATGAATTTAACATATCGAGTAAACAAATTTTCCTAATCTTTCTGTTCAAGCGCCATCTAC | 0.966 RPM ratio (pull-down/input)
2 | GATGATTGTTCTCCCAGCTGATGAATTTTGCACCTCGAGTAAACAAATTTTCCTAATCTTTCTGTTCAAGCGCCATCTAC | 0.897 RPM ratio (pull-down/input)
3 | GATGATTGTTCTCCCAGCTGATGAATTCCTTTTATCGAGTAAACAAATTTTCCTAATCTTTCTGTTCAAGCGCCATCTAC | 0.896 RPM ratio (pull-down/input)
4 | GATGATTGTTCTCCCAGCTGATGAATTTACCCATTCGAGTAAACAAATTTTCCTAATCTTTCTGTTCAAGCGCCATCTAC | 1.16 RPM ratio (pull-down/input)
5 | GATGATTGTTCTCCCAGCTGATGAATTTTGCGATTCGAGTAAACAAATTTTCCTAATCTTTCTGTTCAAGCGCCATCTAC | 0.992 RPM ratio (pull-down/input)
6 | GATGATTGTTCTCCCAGCTGATGAATTACAACACTCGAGTAAACAAATTTTCCTAATCTTTCTGTTCAAGCGCCATCTAC | 1.55 RPM ratio (pull-down/input)
7 | GATGATTGTTCTCCCAGCTGATGAATTTAAACCCTCGAGTAAACAAATTTTCCTAATCTTTCTGTTCAAGCGCCATCTAC | 0.825 RPM ratio (pull-down/input)
8 | GATGATTGTTCTCCCAGCTGATGAATTTCAGTTTTCGAGTAAACAAATTTTCCTAATCTTTCTGTTCAAGCGCCATCTAC | 1.07 RPM ratio (pull-down/input)
9 | GATGATTGTTCTCCCAGCTGATGAATTCCACCCGTCGAGTAAACAAATTTTCCTAATCTTTCTGTTCAAGCGCCATCTAC | 0.829 RPM ratio (pull-down/input)
10 | GATGATTGTTCTCCCAGCTGATGAATTACTATCCTCGAGTAAACAAATTTTCCTAATCTTTCTGTTCAAGCGCCATCTAC | 0.923 RPM ratio (pull-down/input)
11 | GATGATTGTTCTCCCAGCTGATGAATTTCCGAACTCGAGTAAACAAATTTTCCTAATCTTTCTGTTCAAGCGCCATCTAC | 0.879 RPM ratio (pull-down/input)
12 | GATGATTGTTCTCCCAGCTGATGAATTTTCAATGTCGAGTAAACAAATTTTCCTAATCTTTCTGTTCAAGCGCCATCTAC | 0.925 RPM ratio (pull-down/input)
13 | GATGATTGTTCTCCCAGCTGATGAATTCTTCTCTTCGAGTAAACAAATTTTCCTAATCTTTCTGTTCAAGCGCCATCTAC | 0.888 RPM ratio (pull-down/input)
14 | GATGATTGTTCTCCCAGCTGATGAATTCAAGTGATCGAGTAAACAAATTTTCCTAATCTTTCTGTTCAAGCGCCATCTAC | 0.934 RPM ratio (pull-down/input)
15 | GATGATTGTTCTCCCAGCTGATGAATTAGCGCATTCGAGTAAACAAATTTTCCTAATCTTTCTGTTCAAGCGCCATCTAC | 1.37 RPM ratio (pull-down/input)
16 | GATGATTGTTCTCCCAGCTGATGAATTGTATTTGTCGAGTAAACAAATTTTCCTAATCTTTCTGTTCAAGCGCCATCTAC | 2.5 RPM ratio (pull-down/input)

Row | Sequence | binding signal
17 | GATGATTGTTCTCCCAGCTGATGAATTGGGGTGGTCGAGTAAACAAATTTTCCTAATCTTTCTGTTCAAGCGCCATCTAC | 0.85 RPM ratio (pull-down/input)
18 | GATGATTGTTCTCCCAGCTGATGAATTCATGTATTCGAGTAAACAAATTTTCCTAATCTTTCTGTTCAAGCGCCATCTAC | 1.28 RPM ratio (pull-down/input)
19 | GATGATTGTTCTCCCAGCTGATGAATTGACTGCTTCGAGTAAACAAATTTTCCTAATCTTTCTGTTCAAGCGCCATCTAC | 1.05 RPM ratio (pull-down/input)
20 | GATGATTGTTCTCCCAGCTGATGAATTGTCAGACTCGAGTAAACAAATTTTCCTAATCTTTCTGTTCAAGCGCCATCTAC | 0.925 RPM ratio (pull-down/input)
21 | GATGATTGTTCTCCCAGCTGATGAATTGTGTCGGTCGAGTAAACAAATTTTCCTAATCTTTCTGTTCAAGCGCCATCTAC | 0.976 RPM ratio (pull-down/input)
22 | GATGATTGTTCTCCCAGCTGATGAATTCGGGTGGTCGAGTAAACAAATTTTCCTAATCTTTCTGTTCAAGCGCCATCTAC | 0.785 RPM ratio (pull-down/input)
23 | GATGATTGTTCTCCCAGCTGATGAATTTTCGACTTCGAGTAAACAAATTTTCCTAATCTTTCTGTTCAAGCGCCATCTAC | 0.87 RPM ratio (pull-down/input)
24 | GATGATTGTTCTCCCAGCTGATGAATTTCGCTGGTCGAGTAAACAAATTTTCCTAATCTTTCTGTTCAAGCGCCATCTAC | 0.825 RPM ratio (pull-down/input)
25 | GATGATTGTTCTCCCAGCTGATGAATTTAGGGACTCGAGTAAACAAATTTTCCTAATCTTTCTGTTCAAGCGCCATCTAC | 0.828 RPM ratio (pull-down/input)
26 | GATGATTGTTCTCCCAGCTGATGAATTTCTCCGGTCGAGTAAACAAATTTTCCTAATCTTTCTGTTCAAGCGCCATCTAC | 0.79 RPM ratio (pull-down/input)
27 | GATGATTGTTCTCCCAGCTGATGAATTGAGGACGTCGAGTAAACAAATTTTCCTAATCTTTCTGTTCAAGCGCCATCTAC | 0.767 RPM ratio (pull-down/input)
28 | GATGATTGTTCTCCCAGCTGATGAATTTACCCGCTCGAGTAAACAAATTTTCCTAATCTTTCTGTTCAAGCGCCATCTAC | 0.976 RPM ratio (pull-down/input)
29 | GATGATTGTTCTCCCAGCTGATGAATTTCGAGGATCGAGTAAACAAATTTTCCTAATCTTTCTGTTCAAGCGCCATCTAC | 0.815 RPM ratio (pull-down/input)
30 | GATGATTGTTCTCCCAGCTGATGAATTGACGATTTCGAGTAAACAAATTTTCCTAATCTTTCTGTTCAAGCGCCATCTAC | 1.11 RPM ratio (pull-down/input)
31 | GATGATTGTTCTCCCAGCTGATGAATTACGGAAATCGAGTAAACAAATTTTCCTAATCTTTCTGTTCAAGCGCCATCTAC | 1.15 RPM ratio (pull-down/input)
